PubChem BioAssay AID485294 (National Center for Advancing Translational Sciences (NCATS), 2010)
The whole screen tested about 370,000 compounds, of which about 150 (0.041%) were called active. Inconclusive results, whose numbers are uncertain, are shown with a selection of clear calls. Calls follow the shape of the dose curve; as a rule, active = well fitted inhibition curve with a large enough effect; inconclusive = small, poorly fitted or top-dose-only effect; inactive = flat fitted curve, though single readings scatter. No potency is given beside an inconclusive call; the fits are too rough.

Biological target: Beta-lactamase (Escherichia coli (strain K12)) (UniProt P00811)
UniProt P00811, sequence (P00811 whole entry, looked up): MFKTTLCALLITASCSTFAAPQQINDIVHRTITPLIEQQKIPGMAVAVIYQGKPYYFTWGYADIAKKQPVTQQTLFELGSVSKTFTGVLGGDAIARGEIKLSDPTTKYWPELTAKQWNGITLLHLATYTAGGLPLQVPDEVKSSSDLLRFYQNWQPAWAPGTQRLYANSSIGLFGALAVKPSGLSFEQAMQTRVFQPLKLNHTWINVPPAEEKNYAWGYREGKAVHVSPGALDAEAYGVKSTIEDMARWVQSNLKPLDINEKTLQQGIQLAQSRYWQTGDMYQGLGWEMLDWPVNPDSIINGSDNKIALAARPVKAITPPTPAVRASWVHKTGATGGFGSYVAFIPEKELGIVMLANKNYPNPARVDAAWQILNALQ
Test: qHTS Inhibitors of AmpC Beta-Lactamase (assay with detergent); also: nearly all actives have a fitted effect of over 25% in size;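 as to activity change, negative = inhibition: 0% = no-compound wells and -100% = no-enzyme wells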
Conditions: AmpC hydrolysis of nitrocefin, absorbance 480 nm, 0.01% Triton; activity change, negative = inhibition: at 114 µM (top of the series)
In short: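 20 mM phosphate pH 7.0 + 0.01% (detergent screen) or 0.0001% Triton X-100; 5.3 nM AmpC reagent; cpd preinc 15 min RT; nitrocefin (800 uM stock) to start; A480 q20 s × 4 min; Activity was normalised to no-enzyme and no-compound control wells.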
Potency is read from the fitted curve at half-maximal effect; tags tell the direction and shape of the fitted curve.

SMILES | Potency | activity change, negative = inhibition
Cc1onc(-c2ccccc2Cl)c1C(=O)N(C)C1CCCCC1 | inconclusive [inhibitor, full curve] | 
COc1ccc(-c2noc(CSc3nnc(-c4ccc(Cl)cc4)n3C)n2)cc1OC |  | inactive: 9.57%
COc1ccc(/C=C/C(=O)OCC(=O)c2ccc(S(=O)(=O)N3CCCCC3)cc2)cc1OC |  | inactive: -6.26%
O=C(COC(=O)c1cccc(S(=O)(=O)N2CCOCC2)c1)c1ccccc1 |  | inactive: -1.56%
CCCCCn1c(=O)c(C(=O)Nc2cc(C)ccn2)c(O)c2ccccc21 | inconclusive [inhibitor, partial curve, poor fit] | 
Cc1cccc(C)c1OCc1n[nH]c(=S)o1 |  | inactive: -0.0223%
CN(C)S(=O)(=O)N1CCN(CC(=O)Nc2ccc(F)cc2)CC1 |  | inactive: -15.2%
O=C(NCc1ccccn1)c1ccc(N2CCCC2)c([N+](=O)[O-])c1 | inconclusive [inhibitor, full curve, poor fit] | 
COc1ccc(-c2cc(C(=O)N/N=C(\C)c3cccnc3)c3cc(C)ccc3n2)cc1OC |  | inactive: 5.51%
COCCN(C(=O)COC(=O)Cc1c[nH]c2ccccc12)c1c(N)n(Cc2ccccc2)c(=O)[nH]c1=O | inconclusive [inhibitor, partial curve, poor fit] | 
COc1ccccc1CNC(=O)COC(=O)c1ccc(C)c(S(=O)(=O)N2CCCCC2)c1 | inconclusive [inhibitor, single point] | 
COc1ccc(CNC(=O)C2CCN(C(=O)c3ccc(-c4ccccc4)cc3)CC2)cc1 | inconclusive [inhibitor, full curve, poor fit] | 
CC(C)[C@]1(c2ccccc2)ON(c2ccccc2C(F)(F)F)C1=O |  | inactive: 8.66%
Cc1ccc(CN2C(=O)CCC2C(=O)NC2CCCC2)cc1 (configuration not stated) | inconclusive [inhibitor, full curve] | 
O=C(COc1ccc(Br)cc1)Nc1ccccc1C(=O)NC1CC1 | inconclusive [inhibitor, partial curve, poor fit] | 
COc1ccc(-c2cc(C(=O)Nc3ccc(Br)cc3)no2)cc1 |  | inactive: 1.5%
Cn1cccc1/C=N/NC(=O)c1cccc(OC(F)(F)C(F)F)c1 |  | inactive: -7.56%
COc1cccc(-c2nc(CS(=O)(=O)CC(=O)NC3CCCCC3C)c(C)o2)c1 (configuration not stated) | inconclusive [inhibitor, full curve, poor fit] | 
COc1ccc(-c2nc(CS(=O)CC(=O)NCCC3=CCCCC3)c(C)o2)cc1 (configuration not stated) |  | inactive: -11.5%
O=S1(=O)CCOC[C@H](CC2CCCCC2)N1Cc1ccccc1 | inconclusive [inhibitor, full curve, poor fit] | 
CCOC(=O)c1cnc2c(OC)cccc2c1Nc1ccc2c(c1)OCCO2 | inconclusive [inhibitor, full curve, poor fit] | 
Fc1cccc(CNc2ncnc3ccc(-c4cccnc4)cc23)c1 | inconclusive [inhibitor, full curve, poor fit] | 
CSc1nc2nccc(-c3ccc4c(c3)OCO4)n2n1 | inconclusive [inhibitor, full curve, poor fit] | 

SMILES | Potency | activity change, negative = inhibition
Cc1nn(-c2ccccc2)c(Cl)c1C1C(C#N)=C(N)Oc2n[nH]c(C)c21 (configuration not stated) | inconclusive [inhibitor, full curve] | 
Cc1ccc(C2CC(c3cccc(Br)c3)n3nc(N)nc3N2)cc1 (configuration not stated) | inconclusive [inhibitor, full curve, poor fit] | 
O=C(NCc1ccncc1)C1CCN(S(=O)(=O)c2ccccc2)CC1 | inconclusive [inhibitor, partial curve, poor fit] | 
CCOc1ccc(Cl)cc1C1CC(=O)Nc2cc(OC)c(OC)c(OC)c21 (configuration not stated) |  | inactive: 20.3%
COc1ccc(C2=NCCn3nc4cc(OC)ccc4c32)cc1 | inconclusive [inhibitor, full curve] | 
Cc1cccc(N2CC(C(=O)NCC3COc4ccccc4O3)CC2=O)c1C (configuration not stated) | inconclusive [inhibitor, full curve, poor fit] | 
Cc1[nH]c2ccc(C(=O)OC(C)C(=O)N(C)C3CCCCC3)cc2c1C (configuration not stated) | inconclusive [inhibitor, single point] | 
Cc1ccc(NC(=O)CNC(=O)OCc2ccccc2)cc1C |  | inactive: 2.64%
CCOC(=O)c1sc(NC(=O)CSc2nnc(C(C)C)n2C)nc1C | inconclusive [inhibitor, full curve, poor fit] | 
COc1ccc(Cc2nnc(N/N=C/c3ccccc3O)[nH]c2=O)cc1OC | inconclusive [inhibitor, full curve, poor fit] | 
CN1C(=O)C2(C(C#N)=C(N)N(c3ccc(Cl)cc3)C3=C2C(=O)CC(C)(C)C3)c2ccccc21 (configuration not stated) |  | inactive: -0.78%
O=C(c1cc2ccccn2n1)N1CCN(Cc2ccccc2)CC1 | inconclusive [inhibitor, full curve, poor fit] | 
Cc1cc(C)nc(CCNC(=O)CC2C(=O)NCCN2Cc2ccc(F)cc2Cl)n1 (configuration not stated) | inconclusive [inhibitor, full curve] | 
Cc1onc(-c2c(Cl)cccc2Cl)c1NC(=O)NC1CCSC1 (configuration not stated) |  | inactive: -13.6%
O=C(NC1CCCC1)C1C2C=CC3(CN(Cc4cccs4)C(=O)C13)O2 (configuration not stated) | inconclusive [inhibitor, partial curve, poor fit] | 
O=C(O)C1CCCN(S(=O)(=O)c2ccc(Cl)s2)C1 (configuration not stated) | inconclusive [inhibitor, full curve, poor fit] | 
CCNC(=S)NCCC1=c2ccccc2=N/C1=C\c1c(O)n(C)c(=O)n(C)c1=O |  | inactive: 1.36%
C#CCOCCOCCOCCNc1nc(N2CCN(C(=O)CCCCCCCCCCNC(=O)[C@H](CCCCN)n3cc(CCCC(=O)O)nn3)CC2)nc(N2CCN(C(=O)CCCCCCCCCCNC(=O)[C@H](CCCN=C(N)N)n3cc(C[C@@H](C)CC)nn3)CC2)n1 | inconclusive [inhibitor, full curve, poor fit] | 
CCN(CC(=O)Nc1ccc(NC(C)=O)cc1)C(=O)c1ccc2ccccc2c1 | inconclusive [inhibitor, full curve, poor fit] | 
COC(=O)c1cnn2c(C(F)(F)F)cc(-c3ccco3)nc12 | inconclusive [inhibitor, partial curve] | 
Cc1nc(SCc2ccccc2)n[nH]1 | inconclusive [inhibitor, partial curve] | 
CC(=O)NC(NC(=S)Nc1c(C)n(C)n(-c2ccccc2)c1=O)C(Cl)(Cl)Cl (configuration not stated) | inconclusive [inhibitor, full curve, poor fit] | 
Fc1ccccc1COc1cccc(/C=N/n2cnnc2)c1 | inconclusive [inhibitor, full curve, poor fit] | 

SMILES | Potency | activity change, negative = inhibition
COCCCN1C(=O)C2C(C(=O)Nc3cc(C)cc(C)c3)C3C=CC2(O3)C1C(=O)NC1CCCCC1 (configuration not stated) |  | inactive: -9.57%
Cc1ccccc1C(=NC(=O)c1ccccc1)c1ccccc1 |  | inactive: 6.87%
Cc1ccccc1NC(=O)C1Cc2ccccc2CN1C(=O)OCc1ccccc1 (configuration not stated) |  | inactive: -0.716%
Fc1cccc(-c2cc3nc4c(c(NCc5ccco5)n3n2)CCCC4)c1 |  | inactive: -11.3%
O=C1CC(N2CCN(S(=O)(=O)c3cccc(C(F)(F)F)c3)CC2)C(=O)N1Cc1ccccc1 (configuration not stated) |  | inactive: -15.4%
CC1(C)Cc2cccc(OCC(=O)OCC(=O)Nc3ccc(C(N)=O)cc3)c2O1 | inconclusive [inhibitor, full curve, poor fit] | 
O=C(c1c(Cl)nc2sccn12)N(C(=O)c1c(Cl)nc2sccn12)c1ccc(Cl)cn1 |  | inactive: -9.58%
Cc1ccc(CCNC(=O)c2ccc(CSCc3ccccc3C)o2)cc1 |  | inactive: 11.6%
Cc1cccc(C)c1NC(=O)C(c1ccccc1)N1CCN(C(=O)c2ccco2)CC1 (configuration not stated) | inconclusive [inhibitor, partial curve] | 
O=C(Nc1ccc(Cl)c(Cl)c1)Nc1ccccc1C(=O)O | inconclusive [inhibitor, single point] | 
Cc1ccc(C(=O)N(C)c2ccc(OCC(=O)N3c4ccc(C)cc4C4CN(C)CCC43)cc2)cc1 (configuration not stated) |  | inactive: -5.26%
CN1CCN(NC(=O)c2cc([N+](=O)[O-])cc([N+](=O)[O-])c2)CC1 | inconclusive [inhibitor, single point] | 
CC(C(=O)N1CCc2ccccc21)N1CCN(c2ccccn2)CC1 (configuration not stated) | inconclusive [inhibitor, partial curve] | 
Cn1nnc2cc(C(=O)Nc3ccccc3F)ccc21 | inconclusive [inhibitor, partial curve, poor fit] | 
O=C(NCc1nnnn1-c1ccc(F)cc1)C1CC(=O)N(c2ccc(F)cc2)C1 (configuration not stated) | inconclusive [inhibitor, full curve, poor fit] | 
COc1cc(OC)c(C2N(c3ccc(Cl)cc3)C(=O)C3CCCN32)cc1OC (configuration not stated) | inconclusive [inhibitor, full curve, poor fit] | 
CCOC(=O)C1=C(C)NC(C)=C(C(=O)OCC)C1C(=O)OCC(=O)c1ccc2c(c1)OCCO2 | inconclusive [inhibitor, full curve] | 
CN(CCOc1ccc(Cl)cc1)c1ccc(S(=O)(=O)N2CCCCC2)cn1 |  | inactive: -1.1%
CCn1c(SCC(=O)N2CCN(c3ccc(F)cc3)CC2)nnc1-c1ccncc1 | inconclusive [inhibitor, full curve, poor fit] | 
Cc1ccc(OCC(=O)NC2CCS(=O)(=O)C2)cc1 (configuration not stated) |  | inactive: 2.94%
Fc1ccc2ncc3c(-c4ccccc4)n[nH]c3c2c1 |  | inactive: 1.84%
